Each structure is given as a SMILES string. Some of the results follow.

For the experiment, the system named is HSkMC (human skeletal muscle cells). The experiment is described as follows: cytotoxicity call (relative viability < 0.9). As to conditions: 10 µM.
On to `C[C@@H]1CN([C@@H](C)CO)C(=O)Cc2cc(NS(=O)(=O)c3ccc(F)cc3)ccc2O[C@H]1CN(C)S(C)(=O)=O`, for which the cytotoxicity call is “inactive”.
For `COC(=O)C1=C(C#N)NC(C)=C(C(=O)OC(C)C)C1c1cccc([N+](=O)[O-])c1` (stereo not given), the cytotoxicity call is “inactive”.
As to `COc1ccc(NC(=O)N(C)C[C@@H]2Oc3cc(C#CCN(C)C)ccc3S(=O)(=O)N([C@@H](C)CO)C[C@H]2C)cc1`, the cytotoxicity call is “inactive”.
As for `C[C@@H]1CN([C@@H](C)CO)C(=O)Cc2cc(NC(=O)Nc3ccc(C(F)(F)F)cc3)ccc2O[C@@H]1CN(C)C(=O)Nc1ccccc1`, the cytotoxicity call is “active”.
`Cc1noc(C)c1S(=O)(=O)Nc1ccc2c(c1)C(=O)N([C@@H](C)CO)C[C@@H](C)[C@H](CN(C)S(C)(=O)=O)O2`: the cytotoxicity call is “inactive”.
On to `COCC(=O)N1C[C@@H](C)[C@H](OC)CN(C)C(=O)c2ccc(NC(=O)Nc3cccc(F)c3)cc2OC[C@H]1C`, for which the cytotoxicity call was “inactive”.
Then `C[C@@H]1CN([C@H](C)CO)C(=O)c2cc(NS(C)(=O)=O)ccc2O[C@@H]1CN(C)S(=O)(=O)c1cn(C)cn1`, with “inactive”; and `COc1ccc(-c2cnc3c(c2)C(=O)N([C@@H](C)CO)C[C@@H](C)[C@H](CN(C)C(=O)C2CCOCC2)O3)cc1`, with “inactive”; and `CC1CC2C(C(O)CC3(C)C2CCC3(O)C(=O)COC(=O)CCC(=O)[O-])C2(C)C=CC(=O)C=C12.[Na+]` (stereo not given), with “inactive”.
For the compound `COc1ccc(S(=O)(=O)Nc2ccc3c(c2)C(=O)N([C@H](C)CO)C[C@H](C)[C@H](CN(C)C(=O)c2ccccc2)OCCCC[C@@H](C)O3)cc1`, the cytotoxicity call was “inactive”.
For the compound `C[C@@H]1CCCCO[C@H](CN(C)C(=O)NC2CCCCC2)[C@H](C)CN([C@@H](C)CO)C(=O)c2cc(NC(=O)Nc3cccc4ccccc34)ccc2O1`, the cytotoxicity call was “inactive”.
Regarding `C[C@@H]1CN([C@H](C)CO)C(=O)c2cc(NS(=O)(=O)c3cn(C)cn3)ccc2O[C@@H]1CN(C)S(=O)(=O)c1ccc(Cl)cc1`, the cytotoxicity call was “inactive”.
Turning to `O=C(C[C@@H]1CC[C@@H]2[C@H](COC[C@@H](O)CN2C(=O)Nc2ccc(Cl)c(Cl)c2)O1)NCc1ccncc1`, the cytotoxicity call was “inactive”.
As for `C[C@H](CO)N1C[C@H](C)[C@@H](CN(C)CC2CCCCC2)OCCCC[C@H](C)Oc2ccc(NC(=O)c3ccncc3)cc2C1=O`, the cytotoxicity call is “inactive”.
In the case of `C[C@@H]1CCCCO[C@H](CN(C)C(=O)Nc2ccc(C(F)(F)F)cc2)[C@@H](C)CN([C@@H](C)CO)C(=O)c2cc(NS(=O)(=O)c3ccc(F)cc3)ccc2O1`, the cytotoxicity call was “inactive”.
`C[C@@H]1CN([C@H](C)CO)C(=O)c2cc(NS(=O)(=O)c3ccc(Cl)cc3)ccc2O[C@@H](C)CCCCO[C@@H]1CN(C)C(=O)c1ccncc1`: the cytotoxicity call was “inactive”.
As to `Nc1ccncc1N`, the cytotoxicity call was “inactive”.
For `C[C@@H]1CN([C@@H](C)CO)C(=O)c2cc(NC(=O)Nc3cccc4ccccc34)ccc2O[C@@H](C)CCCCO[C@H]1CN(C)Cc1ccc2c(c1)OCO2`, the cytotoxicity call was “active”.
As for `Cc1ccc(S(=O)(=O)Nc2cccc3c2O[C@@H](CN(C)C(=O)Nc2ccc(C(F)(F)F)cc2)[C@@H](C)CN([C@H](C)CO)C3=O)cc1`, the cytotoxicity call is “inactive”.
The value for `C[C@H]1COC(=O)[C@H](Cc2ccc(F)cc2)CCC=CC[C@@H](CC(=O)N[C@H](CO)Cc2ccccc2)C(=O)N1` was “inactive”; that for `C[C@H]1CN([C@@H](C)CO)S(=O)(=O)c2ccc(C#CC3(O)CCCC3)cc2O[C@H]1CN(C)C(=O)Cc1ccncc1` was “inactive”.
Consider `C[C@@H](N)c1ccc(F)cc1F`, for which the cytotoxicity call is “inactive”.
Then `COc1ccc(NC(=O)Nc2ccc3c(c2)C(=O)N([C@H](C)CO)C[C@@H](C)[C@@H](CN(C)C(=O)C2CCCCC2)OCCCC[C@H](C)O3)cc1`, with “inactive”; and `CN(CC(=O)NCc1ccccn1)S(=O)(=O)c1cc(Br)cnc1N`, with “inactive”.
On to `C[C@H](CO)N1C[C@H](C)[C@H](CN(C)C(=O)CCCN(C)C)OCCCC[C@H](C)Oc2ccc(NC(=O)Nc3cccc4ccccc34)cc2C1=O`, for which the cytotoxicity call is “inactive”.
Then `COc1ccc(CN(C)C[C@@H]2Oc3ccc(NS(C)(=O)=O)cc3CC(=O)N([C@@H](C)CO)C[C@H]2C)cc1`, with “inactive”.
Turning to `COc1ccc(NC(=O)N(C)C[C@@H]2OCCCC[C@H](C)Oc3ccc(NC(=O)NC4CCCCC4)cc3C(=O)N([C@@H](C)CO)C[C@@H]2C)cc1`, the cytotoxicity call was “inactive”.
The value for `COc1ccc(NC(=O)N(C)C[C@H]2OCCCC[C@@H](C)Oc3ccc(NC(=O)Nc4ccc5c(c4)OCO5)cc3C(=O)N([C@H](C)CO)C[C@@H]2C)cc1` was “inactive”; that for `CCCC(=O)Nc1ccc2c(c1)C(=O)N(C)C[C@@H](OC)[C@H](C)CN(C(=O)Cc1ccccn1)[C@H](C)CO2` was “inactive”.
For the compound `c1ccc2nc(C3=NCCN3)cnc2c1`, the cytotoxicity call is “inactive”.
On to `CCNC(=O)c1cc2c(c(-c3cccc(-c4cccc(F)c4)c3)n1)[C@H](CCO)N([S@@](=O)C(C)(C)C)C2`, for which the cytotoxicity call was “inactive”.
Regarding `Cc1ccc(-c2cnc3c(c2)C(=O)N([C@@H](C)CO)C[C@H](C)[C@H](CN(C)C(=O)Cc2ccncc2)O3)cc1`, the cytotoxicity call was “inactive”.
With `CN(CCN)C1CCCCC1`, the cytotoxicity call is “inactive”.
For `C[C@@H]1CCCCO[C@@H](CN(C)C(=O)C2CCCCC2)[C@H](C)CN([C@H](C)CO)C(=O)c2cc(NS(=O)(=O)c3ccc(F)cc3)ccc2O1`, the cytotoxicity call is “inactive”.
Turning to `C[C@@H]1CN([C@@H](C)CO)C(=O)c2cc(NS(=O)(=O)c3ccc(Cl)cc3)ccc2O[C@@H](C)CCCCO[C@H]1CN(C)Cc1ccncc1`, the cytotoxicity call is “inactive”.
Regarding `C[C@H]1CN([C@@H](C)CO)C(=O)Cc2cc(NC(=O)CCN3CCOCC3)ccc2O[C@H]1CN(C)C(=O)Nc1ccccc1`, the cytotoxicity call is “inactive”.
With `C[C@@H]1CCCCO[C@H](CN(C)Cc2ccc(C(F)(F)F)cc2)[C@@H](C)CN([C@@H](C)CO)C(=O)c2cc(NC(=O)CCCN(C)C)ccc2O1`, the cytotoxicity call was “inactive”.
Consider `O=C(C[C@H]1CC[C@H]2[C@@H](COC[C@@H](O)CN2S(=O)(=O)c2ccc(Oc3ccccc3)cc2)O1)NC1CCC1`, for which the cytotoxicity call is “inactive”.
Regarding `COc1ccc(NC(=O)N(C)C[C@@H]2OCCCC[C@@H](C)Oc3ccc(NC(=O)CCC(F)(F)F)cc3C(=O)N([C@H](C)CO)C[C@H]2C)cc1`, the cytotoxicity call was “inactive”.
Regarding `C[C@@H]1CN([C@H](C)CO)C(=O)Cc2cc(NC(=O)CCN3CCOCC3)ccc2O[C@@H]1CN(C)C(=O)Nc1ccccc1`, the cytotoxicity call is “inactive”.
